{"source": "patent US9745274B2", "about": "“Compound, organic cation transporter 3 detection agent, and organic cation transporter 3 activity inhibitor” (SHIN NIPPON BIOMEDICAL LABORATORIES, LTD., priority 2013, dated 2017)", "note": "For part of these data: At least one read-out could not be matched to a standard name with certainty. Some entries share one result that the patent states for a list of compounds."}
{"biological_target": "T1, human organic cation transporter 3 (hOCT3) (Homo sapiens, UniProt O75751)", "T1 construct": "expressed in transfected cells; host or cells: HEK293", "T1 sequence (O75751 1-556)": "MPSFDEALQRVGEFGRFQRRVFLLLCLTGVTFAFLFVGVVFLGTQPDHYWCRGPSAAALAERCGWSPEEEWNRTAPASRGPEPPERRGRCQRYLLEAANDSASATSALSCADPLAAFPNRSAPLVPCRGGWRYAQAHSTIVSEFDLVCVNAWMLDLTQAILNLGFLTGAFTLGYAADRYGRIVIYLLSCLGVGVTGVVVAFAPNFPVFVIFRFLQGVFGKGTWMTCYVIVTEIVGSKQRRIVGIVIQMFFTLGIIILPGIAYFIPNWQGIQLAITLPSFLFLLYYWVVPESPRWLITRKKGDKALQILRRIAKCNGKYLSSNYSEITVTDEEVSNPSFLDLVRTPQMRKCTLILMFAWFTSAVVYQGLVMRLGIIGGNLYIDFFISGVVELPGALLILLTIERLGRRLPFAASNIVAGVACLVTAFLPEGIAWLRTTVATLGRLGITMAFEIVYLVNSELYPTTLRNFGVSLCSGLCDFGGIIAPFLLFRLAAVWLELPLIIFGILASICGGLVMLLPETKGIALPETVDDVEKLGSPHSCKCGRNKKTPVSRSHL", "experiment": "Histamine incorporation experiment in HEK293 cells expressing hOCT3 (OCT3 inhibition activity)", "type": "cell-based", "settings": "Tables 3-1 to 3-15; in a manner similar to Example 12 (30 μM there); concentration not given in the tables", "description": "In order to measure an activity that inhibits OCT3 from incorporating a substrate (OCT3 inhibition activity) for each compound, histamine incorporation experiments as described below were performed.\nHistamine incorporation experiments were performed in accordance with a method disclosed in Br J Pharmacol. 2002; 136(6): 829-836. In the experiments, HEK293 cells were used. The HEK293 cell is a human embryonal renal cell strain expressing human organic cation transporter 3 (hOCT3). The HEK 293 cells were inoculated onto 24-well plates at 1.5×10^5 cells/well, and were cultivated overnight in a carbon dioxide incubator. Test substances were dissolved in 100% DMSO solution and then dissolved in HBSS-HEPES solution (buffer solution prepared by dissolving 9.7 g Hank's Balanced Salt, 1.4% sodium bicarbonate 25 mL, and 1M HEPES 25 mL in 940 mL ultra pure water, and by adjusting to pH7.4 with 1M sodium hydroxide). After removing culture media for cell culture, pretreatment was performed for 5 minutes with 1 mL HBSS-HEPES solution. Then, the test substance and [3H]histamine (final concentration 100 nM) were added to the cells and reacted for 1 minute at room temperature. After the reaction was completed, the reaction was stopped by ice-cooled HBSS-HEPES solution, extracellular fluid was aspirated by an aspirator, and then the cells were washed twice with HBSS-HEPES. After washing, the cells were dissolved in 0.5M sodium hydroxide solution. The amount of histamine in the cells was found by measuring a radioactivity in a cell lysis solution by a liquid scintillation counter. Protein content in the cells was measured by Lowry method (J Biol Chem. 1951; 193(1): 265-75) by using the cell lysis solution, and translated into histamine incorporation amount per protein content for each experiment. A histamine incorporation rate (%) in the presence of 30 μM of the test substance was calculated by regarding a histamine incorporation amount in a case of no incorporation inhibitor as 100% (control) of histamine incorporation rate. A value (%) obtained by subtracting the histamine incorporation rate from 100(%) was calculated as an OCT3 inhibition rate (%).\nNote that a histamine incorporation rate (%) in the presence of 10 μM of the test substance was calculated by regarding a histamine incorporation amount in a case of no incorporation inhibitor as 100% (control) of histamine incorporation rate. A value (%) obtained by subtracting the histamine incorporation rate from 100(%) was calculated as an OCT3 inhibition rate (%). […]", "units": {"Histamine Incorporation Rate to Control (%)": "%"}}
{"smiles": "CN(C)c1nc(CSCC/C(N)=N/S(=O)(=O)C(F)(F)F)cs1", "note": "[SR-2005]", "Histamine Incorporation Rate to Control (%)": 107.8}
{"smiles": "Cc1nc(CCSCc2csc(N(C)C)n2)[nH]c(=O)c1CCc1ccccc1", "note": "[SR-2011]", "Histamine Incorporation Rate to Control (%)": 62.1}
{"smiles": "NC(N)=Nc1cccc(CSCC/C(N)=N/S(=O)(=O)C(F)(F)F)c1", "note": "[SR-2020]", "Histamine Incorporation Rate to Control (%)": 74.6}
{"smiles": "NC(N)=Nc1cccc(CSCC/C(N)=N/S(=O)(=O)C(F)(F)F)n1", "note": "[SR-2022]", "Histamine Incorporation Rate to Control (%)": 21.0}
{"smiles": "NC(N)=Nc1cc(CSCC/C(N)=N/S(=O)(=O)C(F)(F)F)ccn1", "note": "[SR-2023]", "Histamine Incorporation Rate to Control (%)": 15.0}
{"smiles": "Cc1nc(CCSCc2cccc(N=C(N)N)n2)[nH]c(=O)c1CCc1ccccc1", "note": "[SR-2036]", "Histamine Incorporation Rate to Control (%)": 15.4}
{"smiles": "CN/C(=C\\[N+](=O)[O-])NCCSCc1csc(N=C(N)N)n1", "note": "[SR-2044]", "Histamine Incorporation Rate to Control (%)": 92.1}
{"smiles": "NC(N)=Nc1nc(CSCCNC(=O)CO)cs1", "note": "[SR-2045]", "Histamine Incorporation Rate to Control (%)": 35.2}
{"smiles": "NC(N)=Nc1nc(CSCCc2ncc(CCc3ccccc3)o2)cs1", "note": "[SR-2051]", "Histamine Incorporation Rate to Control (%)": 61.2}
{"smiles": "Cc1nc(CCCOc2cc(N=C(N)N)ccn2)[nH]c(=O)c1CCc1ccccc1", "note": "[SR-2064]", "Histamine Incorporation Rate to Control (%)": 82.5}
{"smiles": "NC(N)=Nc1nc(CCCC/C(N)=N/S(=O)(=O)C(F)(F)F)cs1", "note": "[SR-2065]", "Histamine Incorporation Rate to Control (%)": 41.5}
{"smiles": "NC(N)=Nc1nc(CCCC/C(N)=N/S(N)(=O)=O)cs1", "note": "[SR-2066]", "Histamine Incorporation Rate to Control (%)": 58.1}
{"smiles": "N=C(N)CCCCc1csc(N=C(N)N)n1", "note": "[SR-2068, 5-[2-(diaminomethyleneamino)thiazole-4-yl]pentaimideamide]", "Histamine Incorporation Rate to Control (%)": 71.5}
{"smiles": "N#C/N=C(\\N)NCCCCc1csc(N=C(N)N)n1", "note": "[SR-2069]", "Histamine Incorporation Rate to Control (%)": 48.6}
{"smiles": "N=C(N)NCCCCc1csc(N=C(N)N)n1", "note": "[SR-2071]", "Histamine Incorporation Rate to Control (%)": 73.0}
{"smiles": "NC(N)=Nc1nc(CCCCNC(=O)CO)cs1", "note": "[SR-2073]", "Histamine Incorporation Rate to Control (%)": 52.9}
{"smiles": "CNC(=O)CCCCc1csc(N=C(N)N)n1", "note": "[SR-2075]", "Histamine Incorporation Rate to Control (%)": 76.1}
{"smiles": "Cc1nc(CCCCc2csc(N=C(N)N)n2)[nH]c(=O)c1CCc1ccccc1", "note": "[SR-2076]", "Histamine Incorporation Rate to Control (%)": 11.8}
{"smiles": "CNC(=O)CCSCc1csc(N=C(N)N)n1", "note": "[SR-2203]", "Histamine Incorporation Rate to Control (%)": 83.7}
{"smiles": "CNCCCCc1csc(N=C(N)N)n1", "note": "[SR-2204]", "Histamine Incorporation Rate to Control (%)": 96.6}
{"smiles": "CC(C)c1nc(CSCCC(N)=NS(N)(=O)=O)cs1", "note": "[SR-2207, (Z)-3-((2-isopropylthiazol-4-yl)methylthio)-N′-sulfamoylpropanimidamide]", "Histamine Incorporation Rate to Control (%)": 93.3}
{"smiles": "Cc1nc(CCSCc2csc(N=C3NCCN3)n2)[nH]c(=O)c1CCc1ccccc1", "note": "[SR-2213]", "Histamine Incorporation Rate to Control (%)": 54.2}
{"smiles": "NC(N)=Nc1nc(CSCCC(N)=NS(=O)(=O)C(F)(F)F)cs1", "note": "[SR-2216]", "Histamine Incorporation Rate to Control (%)": 38.5}
{"smiles": "Cc1nc(CCSCc2ccnc(N=C(N)N)c2)[nH]c(=O)c1CCc1ccccc1", "note": "[SR-2219]", "Histamine Incorporation Rate to Control (%)": 22.6}
{"smiles": "CC(=O)NC(=O)CCSCc1csc(N=C(N)N)n1", "note": "[SR-2225]", "Histamine Incorporation Rate to Control (%)": 69.6}
{"smiles": "NC(N)=Nc1nc(CSCCC(=O)NC(=O)c2ccccc2)cs1", "note": "[SR-2226]", "Histamine Incorporation Rate to Control (%)": 78.2}
{"smiles": "CSc1nc(CSCCC(N)=NS(N)(=O)=O)cs1", "note": "[SR-2227]", "Histamine Incorporation Rate to Control (%)": 86.2}
{"smiles": "Cc1nc(CSCC/C(N)=N/S(N)(=O)=O)cs1", "note": "[SR-2228]", "Histamine Incorporation Rate to Control (%)": 82.4}
{"smiles": "NC(N)=Nc1cc(CSCCC(N)=NS(N)(=O)=O)ccn1", "note": "[SR-2229]", "Histamine Incorporation Rate to Control (%)": 55.8}
{"smiles": "NC(N)=Nc1cccc(CSCCC(N)=NS(N)(=O)=O)n1", "note": "[SR-2230]", "Histamine Incorporation Rate to Control (%)": 41.4}
{"smiles": "N=C(N)CCSCc1ccc([N+](=O)[O-])o1", "note": "[SR-2233]", "Histamine Incorporation Rate to Control (%)": 95.3}
{"smiles": "N=C(N)CCSCc1ccc([N+](=O)[O-])n1Cc1ccccc1", "note": "[SR-2234]", "Histamine Incorporation Rate to Control (%)": 49.8}
{"smiles": "Cc1nc(CCSCc2ccc([N+](=O)[O-])n2Cc2ccccc2)[nH]c(=O)c1CCc1ccccc1", "note": "[SR-2235]", "Histamine Incorporation Rate to Control (%)": 91.3}
{"smiles": "N=C(N)NCc1csc(N=C(N)N)n1", "note": "[SR-2236]", "Histamine Incorporation Rate to Control (%)": 101.4}
{"smiles": "Cc1nc(CSCC/C(N)=N/S(=O)(=O)C(F)(F)F)cs1", "note": "[SR-2238]", "Histamine Incorporation Rate to Control (%)": 107.4}
{"smiles": "Cc1nc(CSCCc2nc(=O)c(CCc3ccccc3)c(C)[nH]2)cs1", "note": "[SR-2239]", "Histamine Incorporation Rate to Control (%)": 66.8}
{"smiles": "NC(CCSCc1cscn1)=NS(N)(=O)=O", "note": "[SR-3001]", "Histamine Incorporation Rate to Control (%)": 114.7}
{"smiles": "NC(CCSCc1cscn1)=NS(=O)(=O)C(F)(F)F", "note": "[SR-3002]", "Histamine Incorporation Rate to Control (%)": 100.2}
{"smiles": "Cc1[nH]c(CCSCc2cscn2)nc(=O)c1CCc1ccccc1", "note": "[SR-3003]", "Histamine Incorporation Rate to Control (%)": 59.4}
{"smiles": "CSc1nc(CSCCC(N)=NS(=O)(=O)C(F)(F)F)cs1", "note": "[SR-3012]", "Histamine Incorporation Rate to Control (%)": 108.1}
{"smiles": "CC(C)c1nc(CSCCC(N)=NS(=O)(=O)C(F)(F)F)cs1", "note": "[SR-3021]", "Histamine Incorporation Rate to Control (%)": 104.0}
{"smiles": "NC(N)=Nc1nc(CSc2ccc(F)cc2)cs1", "note": "[SR-3123]", "Histamine Incorporation Rate to Control (%)": 52.8}
{"smiles": "NC(N)=Nc1nc(COCc2ccc(F)cc2)cs1", "note": "[SR-3129]", "Histamine Incorporation Rate to Control (%)": 79.4}
{"smiles": "NC(N)=Nc1nc(CCCc2ccc(F)cc2)cs1", "note": "[SR-3131]", "Histamine Incorporation Rate to Control (%)": 77.7}
{"smiles": "NC(N)=Nc1nc(CNCCc2ccc(F)cc2)cs1", "note": "[SR-3136]", "Histamine Incorporation Rate to Control (%)": 71.4}
{"smiles": "NC(N)=Nc1nc(CSCCc2ccc(F)cc2)cs1", "note": "[SR-3137]", "Histamine Incorporation Rate to Control (%)": 66.7}
{"smiles": "N=C(NCc1csc(N=C(N)N)n1)NS(N)(=O)=O", "note": "[SR-3154]", "Histamine Incorporation Rate to Control (%)": 111.5}
{"smiles": "NC(N)=Nc1nc(CS/C(N)=N\\S(N)(=O)=O)cs1", "note": "[SR-3155]", "Histamine Incorporation Rate to Control (%)": 110.3}
{"smiles": "NC(N)=Nc1nc(CS/C(N)=N/S(=O)(=O)C(F)(F)F)cs1", "note": "[SR-3159]", "Histamine Incorporation Rate to Control (%)": 93.8}
{"smiles": "NC(N)=Nc1ncc(CSCCC(N)=NS(=O)(=O)c2ccccc2)s1", "note": "[SR-3203]", "Histamine Incorporation Rate to Control (%)": 77.8}
{"smiles": "N=C(N)CCSCc1csc(N=C2NCCN2)n1", "note": "[SR-3208]", "Histamine Incorporation Rate to Control (%)": 91.3}
{"smiles": "CCCCN/C(N)=N/c1nc(CSCCC(=N)N)cs1", "note": "[SR-3209]", "Histamine Incorporation Rate to Control (%)": 57.0}
{"biological_target": "T2, OCT3 (Homo sapiens, UniProt O75751)", "T2 sequence (O75751 1-556)": "T1 sequence (O75751 1-556)", "experiment": "not given", "settings": "nonpatent literature 1; read-out: IC50 as OCT3 inhibitor; cited from earlier work", "units": {"IC50": "µM"}}
{"smiles": "Cn1cc(C(=O)[C@@H]2CCc3nc[nH]c3C2)c2ccccc21", "note": "[Ramosetron]", "IC50": "< 100"}
{"smiles": "CN1C2CCCC1CC(NC(=O)c1nn(C)c3ccccc13)C2", "note": "(stereo not drawn) [granisetron]", "IC50": "< 100"}
